Data as given in doi:10.1101/2023.05.26.542386 (bioRxiv, 2023).

Experiments:
[1] = molecular target: T1, mCD86 Fc (human IgG1) chimera (mouse, UniProt P42082 24-244); assay: pull-down
T1 sequence (looked up): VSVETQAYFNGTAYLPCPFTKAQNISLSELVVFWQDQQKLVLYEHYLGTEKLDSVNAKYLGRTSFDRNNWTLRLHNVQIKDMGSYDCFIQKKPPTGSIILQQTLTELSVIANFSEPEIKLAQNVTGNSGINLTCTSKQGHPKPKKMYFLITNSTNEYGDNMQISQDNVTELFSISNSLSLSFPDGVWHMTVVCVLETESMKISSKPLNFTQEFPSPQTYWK

[2] = molecular target: T2, mCD80 Fc (human IgG1) chimera (mouse, UniProt Q00609 38-246); assay: pull-down
T2 sequence (looked up): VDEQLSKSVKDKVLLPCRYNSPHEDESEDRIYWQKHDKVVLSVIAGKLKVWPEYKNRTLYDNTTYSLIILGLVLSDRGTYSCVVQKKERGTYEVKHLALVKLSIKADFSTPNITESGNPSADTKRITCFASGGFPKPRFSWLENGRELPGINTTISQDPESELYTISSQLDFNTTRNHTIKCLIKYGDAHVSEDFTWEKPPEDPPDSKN

B1: mCD152/Fc (CTLA4-Ig, mouse IgG2a, non-cytolytic) chimera (Fc fusion)
chain: not shown
B1: binds [1]; binds [2].
